# The supplement of paper PMC12632987
# Whole data set: some 2,300 sequences, median “median log2 fold change of GCK-ALFA target abundance (FLAG IP / Myc IP barcode read proportion)” near 0.095, cut for the lowest 2% near -0.47. Some of the results follow.
# B1: LC3A_3_1557 (protein)
# chain: MEEIREETLEELREAGKSEEVLEAARRAFDALIERGYEEALKTLAEETRKLINLPDELLLDFFEEVLETIETEDLNEEELIEKIKEIARTTLNESEIIEL
# B2: LC3A_16_525 (protein)
# chain: PAELEAQLAWLQALYAALETSLDAALALARQHDPALAAKIEAAKADPSKLAEVYKAIAAAAKALAAQFKAAGKEELAATAQNIADAAETDAELAELRNEE
# B3: LC3A_28_931 (protein)
# chain: MTVEEIKAAIRATADAAIAAGEDALIEVEIGPDTTVEEAKEIMDVLEEEAARLAAAGLKVDVVIDLDDVSQEVLDTIMERADAIEAAYPRVNVIIALDEK
# B4: LC3A_3_1803 (protein)
# chain: MEEKLEELLKLLREAGKSEETIEAVREALELLIERGYEEAFETFIEEMRKLVDLPDELLLDLAERVLEYLKTNDASEEEVKEFIKEEARLTRLEGEIIEL
# B5: LC3A_3_1349 (protein)
# chain: MEELIEELVERLREAGFSEEVVEAARRLLEALAELGHEEAMERVVEVLLEHKDAPEELIVEALEAATREVEENPDLTEEEVEELVKLLEAELEIEPLDEE
# B6: LC3A_3_1821 (protein)
# chain: MEEEIEETLRLLREAGWSEEALEAVRAAVEALLERGYEEAARTLIELMRRLRDLPSERILALARDVLELIETSDDSEEEMRERIVEIARTHEHEAEIIEL
# B7: LC3A_free_46_2421 (protein)
# chain: MTLEIDIDFIAKTKETAEAVSEEIVELLKELAEKHGVEVEIEVDIEKLEDGTYYVDIDATITGVTEEQAKQIEDEITSKVEEIFEKYPEVLGALISSELK
# B8: LC3A_28_1209 (protein)
# chain: SAAEAAIAALRAQVDAAIAAGEPETIVVTIPATVTVEEARAIMAAVEEEAARASGIPGTAIVVDLEEGVSEEVRRVVGERADAIEARYPNVTVIIALAEE
# B9: LC3A_45_1934 (protein)
# chain: MYLATVDILVPKELAEEALELVKEKGEELEEKYGDKVEVDFETLEKSYEATKNEEEVYLEVNIYADDKQTALDAADELVDYLEERLNGQVSAIISIEELP
# B10: LC3A_28_922 (protein)
# chain: MTKEEIIKKIREIAEEAIEKGEDAFIEVEIDSSHTKEEAEEIMDEIEREVKRLSEAGLKVDILITLDNVSQEVLDVVTDRAEEIEEKYPNVNVVIALDEE
# B11: LC3A_free_39_2213 (protein)
# chain: SEEELEELLKKVAEESGLDYEYIKKKIEEIQKVAGLSLEQMKKIVEAILEAVKEGANAEEILERILALAKELKAAGKSPEEIAKALLEEVEDYRNLIPLD
# B12: LC3A_free_46_2333 (protein)
# chain: TLVEVEVEVLAENRETLEAFAADTEARIKERFAAAGIDAEVEVELEWAEDGKTALLKVKVTIKDPNADPQEVANMVVDAIDESAEKHGLSYIISIDIKEL
# B13: LC3A_3_1433 (protein)
# chain: SEELLEEAERVLEEAGFSPEARAAVLELVRLALEAGAEEEVRELIEVLKKAKNVPSERVLEAAEEALRRIREEGVPVEEAVREFIEELRVLELEEEIEEL
# B14: LC3A_free_39_2257 (protein)
# chain: AEEEREEALRRLRELAAKASPEVEAAVLRLAELLADDVEALRRLRELLERALEKGPEAVAILGQFAAEAVARIEAGEDRRAAFEELAKLAEAAIEIEEID
# B15: LC3A_28_941 (protein)
# chain: MTTDEDLAAVLAQAKEAAAKGEATTFTLTVTPEDTEEDVQKIIDTVEEIAELLKDIPGTGIIIDIEAGVPEEKINLISKETEKIEKKYPNVTVILALDED
# B16: LC3A_28_992 (protein)
# chain: SELDKQLAEALAAAKAAAAAGEPAVITIKVSGKATEEDIDKVIEAMREIAEILSGIEGSAIIIDVDGKLPQELRDKLFDAAEEIEEEYPDVTVIIALDEE
# B17: LC3A_3_1795 (protein)
# chain: ADAALAALLAELRAAGKSDETLAAARRALTALIERGYDAAFATLVAELRALKDIPDEILLALLEEVLELVENEDLSEAELTARIRELARLARLESEIEEL
# B18: LC3A_108_165 (protein)
# chain: KIVYISAEPDIFEEAAELAYEIARRTGAKVKLLADTEELAEEFRAANAEILARMKAEGLEIEVLAKTFEEAEKEAKKKYKVDVYEVVTEKGVIDVIEVTE
# B19: LC3A_28_1026 (protein)
# chain: SKAEERVAKAREEALAQKAAGEPVFITIKVTADTTLEDAKTIVEGIEEIVEELKDEKGINIIIDVERGVSQEVIDTLADGAERIEEKYPNVNVIIALEEE
# Molecular target: MAP1LC3A, Q9H492
# Assay: median log2 fold change of GCK-ALFA target abundance (FLAG IP / Myc IP barcode read proportion) (log2 ratio); each designed protein is fused to an ALFA-tag nanobody in HEK293 cells to bring the named protein to FLAG-tagged glucokinase (GCK); Myc marks an untargeted standard; higher = target protein stabilised (more abundant)
# Conditions: target protein: 3xFLAG-MCP-GCK-ALFA reporter; HEK293 landing pad (RPLP)
# Summary of the method: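 An ALFA-nanobody-fused binder library was recombined into HEK293 landing-pad cells and induced with 2 μg mL^−1 doxycycline. Cells were transfected with a plasmid expressing a FLAG-tagged target and a Myc-tagged standard. After 48 h, lysates underwent anti-FLAG and anti-Myc immunoprecipitation, and circular RNA barcodes were reverse transcribed, amplified and sequenced. Target abundance is the per-binder median log2 ratio of FLAG to Myc barcode read proportions. Barcodes needed ≥10^−7 proportion in both replicates, binders ≥3 barcodes per replicate, and a 10^−6 pseudocount was added; the two replicates were pooled.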
row,Binder,median log2 fold change
1,B1,0.107
2,B2,0.204
3,B3,-0.315
4,B4,0.0289
5,B5,0.208
6,B6,0.262
7,B7,-0.00898
8,B8,0.194
9,B9,-0.402
10,B10,0.0501
11,B11,0.203
12,B12,0.0994
13,B13,0.251
14,B14,0.194
15,B15,-0.0159
16,B16,0.078
17,B17,0.163
18,B18,0.00307
19,B19,0.0497
